Experimental findings from paper PMC5439695 (PLoS ONE, 2017) are described below.

This assay has as its system mitochondrial membrane potential (MMP).

Like-named read-outs stand apart in the source and are kept apart here.

As to `CCCCCCCCCCCCn1cc[n+](C)c1.F[B-](F)(F)F`, the “disrupt MMP” value (POD potency) was 4.78 log10(M)*-1.

As for `CCCCCCCCCCCCn1cc[n+](C)c1.O=S(=O)([O-])C(F)(F)F`, the “disrupt MMP” value (POD potency) is on record as 4.74 log10(M)*-1.

Turning to `CCCCCCCCCCCCCCCC[N+](C)(C)C.[Cl-]`, the “disrupt MMP” value (POD potency) is on record as 4.86 log10(M)*-1.

As for `CCCCCCCCCCCCCCCCn1cc[n+](C)c1.F[B-](F)(F)F`, where the note is “POD potency”, the “disrupt MMP” value is 4.74 log10(M)*-1.

Take `CCCCCCCCCCCCCC[n+]1ccn(C)c1.[Cl-]`: where the note is “POD potency”, the “disrupt MMP” value is 4.92 log10(M)*-1.

As to `CCCCCCCCCCCCCC[N+](C)(C)C.[Cl-]`, for the setting “POD potency”, the “disrupt MMP” value is recorded as 4.82 log10(M)*-1.

In the case of `CCCCCCCCCCCCCC[P+](CCCC)(CCCC)CCCC.CCCCCCCCCCCCc1ccc(S(=O)(=O)[O-])cc1`, the “disrupt MMP” value (POD potency) is listed as 6.13 log10(M)*-1.

On to `CCCCCCCCCCCCCC[P+](CCCCCC)(CCCCCC)CCCCCC.N#C[N-]C#N`, for which the “disrupt MMP” value (POD potency) was 6.59 log10(M)*-1.

Regarding `N=C1NC(=N)c2cc3ccccc3cc21` [1,3-Diiminobenz(f)isoindoline], the “disrupt MMP” value (POD potency) is listed as 4.99 log10(M)*-1.

`CCCC[n+]1ccc(C)cc1.[Cl-]` [1-Butyl-4-methylpyridinium chloride]: for the setting “POD potency”, the “disrupt MMP” value was 5.89 log10(M)*-1.

As to `CCCCCCCCCCCCn1cc[n+](C)c1.[Cl-]` [1-Dodecyl-3-methylimidazolium chloride], the “disrupt MMP” value (POD potency) is reported as 5.19 log10(M)*-1.

On to `OCC(c1ccc(Cl)cc1)c1ccc(Cl)cc1` [2,2-Bis(4-chlorophenyl)ethanol], for which the “disrupt MMP” value (POD potency) is reported as 4.56 log10(M)*-1.

On to `CCCCC(CC)COC(=O)c1ccc(O)cc1` (stereo not drawn) [2-Ethylhexylparaben], for which the “disrupt MMP” value (POD potency) is on record as 5.25 log10(M)*-1.

Take `Cl.Cl.Nc1ccc(-c2ccc(N)c(Cl)c2)cc1Cl` [3,3'-Dichlorobenzidine dihydrochloride]: the “disrupt MMP” value (POD potency) was 4.54 log10(M)*-1.

Consider `CCCCNC(=O)OCC#CI` [3-Iodo-2-propynyl-N-butylcarbamate], for which the “disrupt MMP” value (POD potency) is 5.26 log10(M)*-1.

Regarding `O=[N+]([O-])C1(Br)COCOC1` [5-Bromo-5-nitro-1,3-dioxane], under “POD potency”, the “disrupt MMP” value is listed as 4.24 log10(M)*-1.

Take `CC(C)c1cccc(C(C)C)c1N1C(=O)c2ccc(O)cc2C1=O` [5HPP-33]: the “disrupt MMP” value (POD potency) is 5.64 log10(M)*-1.

Consider `CC/C(=C(\c1ccc(O)cc1)c1ccc(OCCN(C)C)cc1)c1ccccc1` [(Z)-4-Hydroxytamoxifen], for which, where the note is “POD potency”, the “disrupt MMP” value is reported as 4.57 log10(M)*-1.

With `CC=O` [Acetaldehyde], for the setting “POD potency”, the “disrupt MMP” value is 4.78 log10(M)*-1.

As to `C=C(c1ccc(C(=O)O)cc1)c1cc2c(cc1C)C(C)(C)CCC2(C)C` [Bexarotene], the “disrupt MMP” value (POD potency) was 4.75 log10(M)*-1.

Consider `CN[C@H]1CC[C@@H](c2ccc(Cl)c(Cl)c2)c2ccc(S(N)(=O)=O)cc21` [UK-373911], for which the “disrupt MMP” value (POD potency) is 5.17 log10(M)*-1.

Consider C.I. Solvent Black 5, for which, under “POD potency”, the “disrupt MMP” value is reported as 4.82 log10(M)*-1.

With Dodecylphenol, the “disrupt MMP” value (POD potency) is 5.57 log10(M)*-1.

Consider tetrabutyltin, for which the “disrupt MMP” value is 5.31 log10(M)*-1.
